Assay results taken from ChEMBL document CHEMBL4888484, “Replenishing the malaria drug discovery pipeline: Screening and hit evaluation of the MMV Hit Generation Library 1 (HGL1) against asexual blood stage Plasmodium falciparum ,using a nano luciferase reporter read-out” (2022).
Hit rate of the full screen: of about 150,000 compounds, about 540 (0.36%) showed an effect of 50% or more. The list shows a part of the results.

What follows are molecules tested on Plasmodium falciparum (assay: Primary screen in NF54 nanoGlo assay, in single point, at 2uM, 72h; a lower Z score goes with more inhibition). Conditions: timepoint 72 hour.
Type: functional, Erythrocyte
`Cc1ccc(C)c(NC(=O)NC[C@H](C)C#N)c1` was tested, and the “% Inhibition” value was -1% and the Z score was 0.07. For `CCN1C(=O)c2cc(S(=O)(=O)NCc3cccc(Cl)c3)ccc2Oc2cccnc21`, the “% Inhibition” value was -5% and the Z score was 0.86. With `O=C(Nc1ccccc1)N1CCCC[C@@H]1CCN1CCCCCC1` the “% Inhibition” value was -14% and the Z score was 1.45. In the case of `C[C@H]1CN(C(=O)Nc2ccc(F)cc2)C[C@@H]1c1nc(-c2ccccc2)no1`, the “% Inhibition” value is reported as -4% and the Z score is reported as 0.42. With `CC(=O)N1CCN(C(=O)c2ccc(C)nc2C2CCN(Cc3ccc(N(C)C)cc3)CC2)CC1` the “% Inhibition” value was -14% and the Z score was 1.78. With `O=C(Cc1cnc2ccccc2c1)N1CCO[C@H](c2nccs2)C1` the “% Inhibition” value was -6% and the Z score was 0.87. In the case of `Cc1ccc(Br)cc1CNCc1cncn1C`, the “% Inhibition” value is reported as -11% and the Z score is reported as 1.1. With `CC(C)Cc1ccc([C@H](C)C(=O)N[C@@H](C)C(N)=O)cc1` the “% Inhibition” value was -6% and the Z score was 1.15. For `Cn1ccc(NC(=O)C(=O)N(Cc2ccccc2F)C2CCC2)n1`, the “% Inhibition” value was -4% and the Z score was 0.58. In the case of `Cc1cc(C(=O)N2CCN(CC(C)C)[C@@H]3CS(=O)(=O)C[C@@H]32)c(C)o1`, the “% Inhibition” value is reported as -9% and the Z score is reported as 1.1. For `CC[C@H](C)[C@H](NC(=O)c1ccccc1)C(=O)O`, the “% Inhibition” value was -18% and the Z score was 2.75. With `COCC[C@H]1CN(Cc2nc(C)c(C)n2C)CCO1` the “% Inhibition” value was -15% and the Z score was 1.59. With `O=C(Nc1ccccc1Oc1ccccc1)N1CCN2CCC[C@H]2C1` the “% Inhibition” value was -9% and the Z score was 1.62. `CC1=CCN(S(=O)(=O)c2cccc(C(=O)NCCn3cccn3)c2)CC1` was tested, and the “% Inhibition” value was -4% and the Z score was 0.58. With `Cc1ncoc1C(=O)N1CC[C@@]2(CCCN(Cc3ccccc3F)C2)C1` the “% Inhibition” value was 5% and the Z score was -1. `Cn1cccc(C(=O)Nc2nc3c(o2)CCCC3)c1=O` was tested, and the “% Inhibition” value was -14% and the Z score was 1.91. `Cc1cccc(C)c1OC[C@@H](O)CNC(=O)c1ccco1` was tested, and the “% Inhibition” value was -16% and the Z score was 1.85. With `CCn1ncnc1CN1CC[C@H](CC2CCCC2)C1` the “% Inhibition” value was 19% and the Z score was -2.05. In the case of `O=C(OCc1ccccn1)c1ccc(O)c(Cl)c1`, the “% Inhibition” value is reported as -1% and the Z score is reported as 0.1. With `Cc1cc(C#N)nc(N2CCN(CC(F)(F)F)C[C@H](C)C2)n1` the “% Inhibition” value was -5% and the Z score was 0.63. `Cc1cc2c(N(C)Cc3ccc4c(c3)OCO4)ncnc2s1` was tested, and the “% Inhibition” value was 0% and the Z score was 0.05. With `CC(=O)NCC(=O)N1CCC(OC(C)(C)C)CC1` the “% Inhibition” value was 30% and the Z score was -4.4. `CCc1ccc([C@@H]2CCCCN2C(=O)c2conc2COC)o1` was tested, and the “% Inhibition” value was 6% and the Z score was -0.78. `COCCc1noc([C@H]2CC(=O)N(C(C)C)C2)n1` was tested, and the “% Inhibition” value was 0% and the Z score was 0. In the case of `Cc1ccsc1CN(Cc1ccc(F)cc1)C(=O)CN(C(C)C)S(=O)(=O)c1cc(Cl)ccc1Cl`, the “% Inhibition” value is reported as -7% and the Z score is reported as 0.71. With `O=C(NCCc1nnc2ccccn12)c1cc(Br)c[nH]1` the “% Inhibition” value was -14% and the Z score was 2.36. For `COc1ccc2c(c1)CCc1c-2n[nH]c1-c1ccc(C(=O)NCc2cccc(Cl)c2)cc1`, the “% Inhibition” value was -3% and the Z score was 0.39. `Cc1ccc2nc(NCc3ccco3)c(-c3noc(C)n3)cc2c1` was tested, and the “% Inhibition” value was -6% and the Z score was 0.69. `Cc1cc2c(cc1S(=O)(=O)N1CCC(C)CC1)OCC(=O)N2Cc1noc(C2CC2)n1` was tested, and the “% Inhibition” value was -6% and the Z score was 0.71. In the case of `N#Cc1ccccc1CN(CC(=O)N1CCCC1)C[C@H]1CCCO1`, the “% Inhibition” value is reported as -4% and the Z score is reported as 0.4. In the case of `CC[C@H](C)NC(=O)CN1CCN(C(=O)c2cccc3[nH]ccc23)CC1`, the “% Inhibition” value is reported as 1% and the Z score is reported as -0.12. In the case of `O=C(O)[C@H]1CN(c2cc(C3CC3)ncn2)CC12CCCCC2`, the “% Inhibition” value is reported as -7% and the Z score is reported as 1.06. In the case of `COCCN1CCC(CN(Cc2ccncc2)Cc2nc3ccc(F)cc3[nH]2)CC1`, the “% Inhibition” value is reported as 0% and the Z score is reported as 0.04. In the case of `CC1CCN(C(=O)c2nc(CC(=O)NC3CC3)no2)CC1`, the “% Inhibition” value is reported as -16% and the Z score is reported as 2.36. For `CC(C)Cc1cc(CNS(=O)(=O)c2cccc3nn(C)nc23)on1`, the “% Inhibition” value was -10% and the Z score was 1.06. `COCCCNCc1ccccc1OC` was tested, and the “% Inhibition” value was -3% and the Z score was 0.62. With `Cc1cccc(NC(=O)C2(C#N)C(c3ccccc3)C2(C)C(=O)c2ccccc2)c1` (centres undefined) the “% Inhibition” value was 1% and the Z score was -0.17. With `CN(C)CCN(Cc1ccccc1)C(=O)c1cc2n(n1)CCN(Cc1ccc(F)cc1)C2=O` the “% Inhibition” value was 0% and the Z score was -0.02. In the case of `Cc1ccc([C@H](C)NC(=O)CC2CCN(C(C)C)CC2)cn1`, the “% Inhibition” value is reported as -16% and the Z score is reported as 1.46. With `COc1ccc(NC(=O)CCN(CC(C)C)c2nc(-c3ccccc3)nc3cc(Cl)ccc23)cc1` the “% Inhibition” value was -15% and the Z score was 1.78. In the case of `CCNC(=O)[C@@]1(OCc2ccccc2F)CC(OCc2ccc(F)cc2F)[C@@H]2OC(C)(C)O[C@@H]2C1` (some centres undefined), the “% Inhibition” value is reported as -4% and the Z score is reported as 0.57. With `O=C(C1CCCC1)N1CC(S(=O)(=O)N2CCC(n3cccn3)CC2)C1` the “% Inhibition” value was -7% and the Z score was 0.62.
